Test results taken from article PMC4336329 (PLoS ONE, 2015).
Screen size: about 310,000 compounds; about 14,000 (4.5%) showed an effect of 50% or more. The effect is printed as a negative number. The list shows a part of the results.

These compounds were tested against human ether-à-go-go-related gene (hERG) potassium channel (human, UniProt Q12809) (assay: primary screen, population patch clamp on CHO cells stably expressing hERG).
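Further: peak tail current of the secondary pulse compared with the same well before compound.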

Sequence of human ether-à-go-go-related gene (hERG) potassium channel (Q12809 whole entry, looked up): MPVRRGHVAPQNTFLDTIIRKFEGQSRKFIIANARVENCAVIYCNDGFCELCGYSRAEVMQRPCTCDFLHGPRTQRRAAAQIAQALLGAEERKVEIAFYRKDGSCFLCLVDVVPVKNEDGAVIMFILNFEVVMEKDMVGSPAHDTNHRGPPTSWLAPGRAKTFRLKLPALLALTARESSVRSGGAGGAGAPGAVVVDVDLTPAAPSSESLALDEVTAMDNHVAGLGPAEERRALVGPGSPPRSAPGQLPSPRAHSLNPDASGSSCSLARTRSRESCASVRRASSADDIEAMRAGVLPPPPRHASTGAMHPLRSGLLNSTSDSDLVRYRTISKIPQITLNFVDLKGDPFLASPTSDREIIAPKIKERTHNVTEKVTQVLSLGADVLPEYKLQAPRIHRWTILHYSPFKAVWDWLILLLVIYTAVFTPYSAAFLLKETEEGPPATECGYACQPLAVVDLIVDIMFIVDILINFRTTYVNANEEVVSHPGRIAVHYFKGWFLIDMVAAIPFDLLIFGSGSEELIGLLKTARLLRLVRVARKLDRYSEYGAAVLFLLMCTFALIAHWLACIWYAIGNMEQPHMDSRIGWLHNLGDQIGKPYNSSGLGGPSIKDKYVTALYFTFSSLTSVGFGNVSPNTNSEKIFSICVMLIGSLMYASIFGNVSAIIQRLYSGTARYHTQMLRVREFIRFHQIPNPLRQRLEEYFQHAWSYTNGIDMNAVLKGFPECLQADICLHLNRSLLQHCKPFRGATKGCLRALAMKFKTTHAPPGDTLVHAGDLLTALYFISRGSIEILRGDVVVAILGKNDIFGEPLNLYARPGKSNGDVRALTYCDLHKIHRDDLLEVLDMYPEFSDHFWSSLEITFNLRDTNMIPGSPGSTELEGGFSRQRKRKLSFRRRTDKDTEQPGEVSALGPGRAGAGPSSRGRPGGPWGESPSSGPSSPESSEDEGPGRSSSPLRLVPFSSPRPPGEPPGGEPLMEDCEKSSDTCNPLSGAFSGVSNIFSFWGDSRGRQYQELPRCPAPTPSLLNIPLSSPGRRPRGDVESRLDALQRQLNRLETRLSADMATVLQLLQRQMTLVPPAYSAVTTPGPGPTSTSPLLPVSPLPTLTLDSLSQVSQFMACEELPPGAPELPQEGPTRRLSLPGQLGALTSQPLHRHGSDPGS

Row | Compound | hERG current change (%, negative = inhibition) at 10uM
1 | O=C(O)c1ccc(Cl)c(S(=O)(=O)NC(Cc2c[nH]c3ccccc23)C(=O)O)c1 (stereo not drawn) | 0.925%
2 | CN(C(=O)COC(=O)c1ccc(CN2CCCC2=O)cc1)c1ccccc1 | -30.9%
3 | Cc1cc(F)ccc1NC(=O)C(C)n1c2ccccc2c2nc(=O)cc(C)n21 (stereo not drawn) | 5.58%
4 | CC(C)(C)C1CCC(=NNC(=O)c2cc(-c3ccccc3)n[nH]2)CC1 (stereo not drawn) | 7.95%
5 | CCCCN1C(=O)NC(NC(=O)c2ccco2)(C(F)(F)F)C1=O (stereo not drawn) | 5.12%
6 | COc1ccc(NC(=O)CS(=O)(=O)Cc2nc(-c3ccc(C)cc3)oc2C)cc1 | 4.32%
7 | CC(=O)c1cc2c(ccc3ccccc32)oc1=O | 19.7%
8 | COC(=O)C1=C(C)N=C2SC(C)C(=O)N2C1/C=C/c1ccccc1 (stereo not drawn) | -17.8%
9 | CC(C)CC(=O)Nc1ccc(C(=O)COC(=O)C2CC(=O)N(Cc3ccccc3)C2)cc1 (stereo not drawn) | 10.7%
10 | COc1cc2c(cc1NC(=O)COC(=O)/C=C/c1ccccc1)oc1ccccc12 | 4.6%
11 | O=C(Nc1ccccc1Cl)Nc1ccccc1Cl | 0.0288%
12 | S=C1SCN(Cc2ccco2)CN1Cc1ccco1 | -6.73%
13 | C=CCNC(=O)c1cc(C(=O)C(C)c2ncc(C(F)(F)F)cc2Cl)c[nH]1 (stereo not drawn) | 0.972%
14 | O=C(Cc1ccccc1)NCC(=O)N1CCCC1 | 19.2%
15 | CN(C)n1cccc1/C=C(\C#N)S(=O)(=O)c1cccc(Cl)c1 | 12.9%
16 | COc1cccc(-n2cnc(=O)c3cccnc32)c1 | 12.2%
17 | CCOc1ccc(C(F)(F)F)cc1NC(=O)c1ccc(OC)c([N+](=O)[O-])c1 | 11%
18 | COc1ccc2oc3ccccc3c(=O)c2c1 | 11.9%
19 | Cc1ccc(NC(=O)COc2ccc3oc4c(c3c2)CCCC4)nc1 | 6.16%

Row | Compound | hERG current change (%, negative = inhibition) at 10uM
20 | COc1ccc(-c2nc3ccccc3nc2-c2ccc(OC)cc2)cc1 | 12.2%
21 | CCOC(=O)c1ccc(NC(=O)CSc2nnc(CNC(=O)c3ccccc3F)o2)cc1 | 0.179%
22 | CCC(=O)N(C)CCc1cc2c(c(OC)c1/C=N/NC(=O)[C@H]1C[C@@H]1c1ccccc1)OCO2 | -37.5%
23 | Cl.OC(C#CCN1CCOCC1)(c1ccccc1)C1CC1 (stereo not drawn) | 24.8%
24 | CC#CCN1c2ccccc2[C@]23C[C@@H](C(=O)OC)N(C(=O)NCCBr)C2=NC(C(=O)OC)=C(C(=O)OC)[C@H]13 | 2.93%
25 | COc1ccc(C(=O)/C=C/Nc2ccc(S(N)(=O)=O)cc2)cc1OC | 9.88%
26 | Cc1nc(N2CCC(C)CC2)c2c(C)c(C(=O)Nc3ccc(C(F)(F)F)cc3)sc2n1 | 21.8%
27 | O=C(NCCc1ccc(Cl)cc1)C1CCN(S(=O)(=O)c2cccc3nonc23)CC1 | -11.5%
28 | CC1CCCCC1NC(=S)NC(=O)c1ccccc1Br (stereo not drawn) | 1.8%
29 | COC(=O)c1cc(OC(=O)CCc2ccc(OC)c(OC)c2)cc(C(=O)OC)c1 | 10.6%
30 | COC(=O)c1ccc(N2CCCCC2)c(NC(=O)c2ccco2)c1 | -45.8%
31 | O=S(=O)(c1cccs1)N1CCN(c2ncccn2)CC1 | -23.2%
32 | CC(=O)c1ccc2c3c(cccc13)CC2 | 2.96%
33 | Cc1ccc(S(=O)(=O)c2nc(-c3cccs3)oc2SCC(N)=O)cc1 | 17.1%
34 | CCOC(=O)Cc1nnc(NC(=O)CC)s1 | 0.0452%
35 | Br.C=CCn1c(=N)n(CC(=O)O)c2ccccc21 | -6.07%
36 | CC(/C=C/c1ccccc1)=N\NC(=O)Cn1cncn1 | 5.96%
37 | O=C(NCc1cccc(Cl)c1)c1cccc(C(F)(F)F)c1 | -0.522%
38 | Cc1ccc(NC(=O)CNS(=O)(=O)c2ccc(F)cc2)cc1C | 21.9%

Row | Compound | hERG current change (%, negative = inhibition) at 10uM
39 | CCOCCCNC(=O)CCn1ccc2cc(S(=O)(=O)N3CCCC3)ccc21 | 13.8%
40 | O=C(COC(=O)/C=C/c1cccc(Cl)c1)Nc1cccc(S(=O)(=O)NC2=NCCC2)c1 | -45.4%
41 | C/C(=N/NC(=O)c1cccs1)c1c(C)[nH]n(-c2nc3ccccc3s2)c1=O | 7.38%
42 | O=[N+]([O-])c1ccc(N2CCN(CCO)CC2)c2ncccc12 | -45.4%
43 | Cc1cc(C(=O)NCCCN2CCOCC2)n(-c2ccccc2)n1 | 19.3%
44 | O=CC1=C(c2ccccc2)Oc2ccccc2O1 | 6.03%
45 | CCOC(=O)C1(Cc2cccc(OC)c2)CCCN(Cc2nccn2CC)C1 (stereo not drawn) | -30.8%
46 | COc1ccc2c(c1OC)C(=O)OC2Nc1ccc(S(=O)(=O)N=C(N)N)cc1 (stereo not drawn) | 16.4%
47 | CCOC(=O)C1=C(c2ccccc2)N(C)C(=O)NC1c1ccc(OC(F)F)c(OC)c1 (stereo not drawn) | -22.6%
48 | CCCCC(=O)NS(=O)(=O)c1ccc(N=NN2CCCCC2)cc1 | 5.3%
49 | CN(C)CCn1ccc(O)c(Cc2ccc(Cl)cc2)c1=O | 4.57%
50 | CNC(=S)Nc1cc2oc3ccccc3c2cc1OC | 8.7%
51 | COc1cccc(CN(C)C(=O)CCN(c2ccccc2)S(=O)(=O)c2ccc(C)cc2)c1OC | -30.4%
52 | Cc1ccc2nc(NC(=O)C3CCN(C(=O)c4ccc(F)cc4)CC3)sc2c1 | -20.1%
53 | Cl.Clc1ccc2nsnc2c1NC1=NCCN1 | -3%
54 | COc1ccc(/C(C)=N/NC(=O)CNC(=O)c2ccncc2)cc1 | 19.7%
55 | COc1ccccc1C(=O)Nc1nc2ccccc2[nH]1 | 12.2%
56 | OCCN1CCN(Cc2cc(Br)cc(Br)c2O)CC1 | -60.8%
57 | COc1cc(C(=O)N(C)C2CCCN(Cc3ccccc3F)C2)cc(OC)c1OC (stereo not drawn) | 8.36%
